Measured values reported in paper PMC12040169 (PLOS Biology, 2025).
This is one part of the list.

What follows are compounds tested on T1, C. trachomatis L2/434/Bu expressing GFP (CTL2-GFP). Details: total inclusion area; 28.5 h, 10 µM; inhibitor.
T1 construct: L2/434/Bu GFP intracellular growth in HeLa cells
Parameters: species or system HeLa; C. trachomatis total inclusion area by high-content imaging, normalised to DMSO
Summary of the method: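 High-content images of fixed, Hoechst-stained infected cultures supply inclusion area and count (growth) plus nuclei number (viability), complementing bulk GFP/resorufin fluorescence. MIC determination is unchanged from the primary assay.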

SMILES | % of control remaining
O=P(O)(CCc1ccccn1)CN1CCCCC1 [CBK262312] | 95.0523
Cc1[nH]c(=O)[nH]c(=S)c1C(=O)Nc1ccc(Cl)cc1C#N [CBK115502] | 118.274
O=C(O)c1ccc(CNC2CC(=O)N(c3ccc(F)cc3)C2=O)cc1 (centres unmarked) [CBK286727] | 92.2553
O=C(O)COc1noc2nc3c(cc12)CCCCC3 [CBK269429] | 98.4196
CCCNC(=O)Cn1nc(CC)n2c(cc3ccsc32)c1=O [CBK284130] | 84.3271
CCOc1ccccc1NC(=O)NCc1cccnc1 [CBK267026] | 128.26
CCOC(=O)N1CCC(NC(=O)N(CCc2ccccc2)Cc2ccccc2)CC1 [CBK155359] | 74.6099
CN1CCc2c(sc3nc(SCc4ccc(Cl)c(Cl)c4)n(-c4ccccc4)c(=O)c23)C1 [CBK263706] | 101.132
O=C1CCC(=O)N1CCOc1nccnc1N1CCNCC1 [CBK074030T] | 89.1349
O=c1[nH]c2ncc(-c3ccco3)nc2n1CCCN1CCOCC1 [CBK064319] | 103.289
CN(C)CCN1CCN(c2cc(Nc3ccc(N(C)C)cc3)nc3ccnn23)CC1 [CBK037211] | 131.516
CC(C)[C@H](NC(=O)C1CC(=O)N(c2ccc(F)cc2)C1)C(=O)N1CCCC1C(=O)O (some centres unmarked) [CBK286723] | 101.432
C=C(C)CNc1ccccc1C(=O)OC [CBK003656C] | 103.374
COCCn1cnnc1C(C)NC(=O)c1nc2ccccc2[nH]1 (centres unmarked) [CBK307366] | 55.0032
O=C(O)C1CC=CCC1C(=O)N1CCN(C(=O)c2ccco2)CC1 (centres unmarked) [CBK299784] | 85.8007
Cc1cccc(CCNC(=O)C2CN(C(=O)C3CCN(C)CC3)C2)c1 [CBK281967] | 101.337
COc1ccc(-c2cnc(N)c(NCC(C)C)n2)c(OC)c1OC [CBK063855] | 82.8349
COC(C)(C)C(=O)N1CCC2(C/C=C/Cc3ccccc3OCC(=O)NCCNC2=O)CC1 [CBK292001] | 97.9102
COc1ccccc1CC(C)NC(=O)CCn1ccc2ccncc21 (centres unmarked) [CBK285175] | 116.734
COc1cc2c(cc1OC)CN(CC1CCCCC1)CC2 [CBK138321] | 72.8761
OC(Cn1nc(-c2ccccc2)cc1-c1ccccc1)Cn1c2ccc(Cl)cc2c2cc(Cl)ccc21 (centres unmarked) [CBK261418] | 77.0802
COc1cccc(C(NC(=O)C2CCN(Cc3cccs3)CC2)c2cnccn2)c1 (centres unmarked) [CBK148572] | 82.6743
CC(=O)Nc1cccc(-n2c(C)nnc2SCC2CCCCC2)c1 [CBK304590] | 67.1503
Cc1cc(C)nc(N2CCCC(O)(c3nc(C)c(CCOc4ccccc4)s3)CC2)n1 (centres unmarked) [CBK285924] | 96.0256
CCOc1cc(C2Nc3ccccc3NC3=C2C(=O)C(C(=O)OC)C(C)C3)ccc1OC(C)C (centres unmarked) [CBK268456] | 140.786
NC(=S)NC(=O)CN1C(=O)c2ccccc2C1=O [CBK264111] | 112.435
CC(C)(C)OC(=O)N1CCC(c2nc3ccccc3cc2N)CC1 [CBK285038] | 98.4737

SMILES | % of control remaining
CCC(CO)Nc1nccnc1-c1cccs1 (centres unmarked) [CBK036800] | 123.471
Cc1nc(C(Cc2ccsc2)NC(=O)c2cc[nH]n2)sc1C (centres unmarked) [CBK284776] | 84.2229
Cc1nc(-c2cc3c(s2)CCN(Cc2ccc(CO)o2)C3)cs1 [CBK306411] | 117.198
Cc1ccc(-c2nc(C)sc2CC(=O)N(C)CCN(C)C)cc1 [CBK282175] | 97.4695
O=C(CCSc1ccccc1)Nc1ccccc1C(=O)N1CCCCC1 [CBK269545] | 107.253
O=C1CCC(=O)N1CCOc1nccnc1OC1CCN(Cc2ccc(Cl)cc2)CC1 [CBK084338] | 95.1818
Cc1ccc(Cn2nnc3c(O)nc(C4CCN(C(=O)CC(C)(C)C)CC4)nc32)cc1 [CBK293970] | 87.8544
O=C(c1cc(F)c(F)cc1F)N1CCC2(CCCN(C/C=C/c3ccccc3)C2)C1 (centres unmarked) [CBK132001] | 88.7097
COc1ccccc1C(=O)N1CCC(c2nc(C)n3ccccc23)C1 (centres unmarked) [CBK282221] | 95.2316
CCCC/C=C/c1cncc(NC2CCC(O)CC2)n1 (centres unmarked) [CBK037840] | 95.2583
CC(=O)Nc1ccc(N2C(=O)CSC2c2ccccc2[N+](=O)[O-])cc1 (centres unmarked) [CBK294443] | 99.002
COc1ccc(N(CC(=O)Nc2cccc3cccnc23)S(=O)(=O)c2ccc(C)cc2)cc1 [CBK263965] | 109.693
O=C(NCCN1CCCC1)C1CCCN(c2nc3c(-c4ccccc4)csc3c(=O)[nH]2)C1 (centres unmarked) [CBK215507] | 97.5195
COc1cc(CO)c(-c2c[nH][nH]c2=O)cc1OC [CBK009476] | 64.9852
Cc1cc(S(=O)(=O)NCCC#N)c(C)cc1Cl [CBK043680] | 108.861
CCOC(=O)[C@H]1CN(C(=O)C(C)(C)NC(=O)OC(C)(C)C)C[C@@H]1c1cc2cc(C)ccc2o1 [CBK001599] | 107.566
Cc1ccc(S(=O)(=O)N(CC(=O)O)c2ccccc2C)cc1 [CBK262423] | 105.056
Cc1ccc(C2=NN(C(=O)CCC(=O)O)C(c3ccc4nccnc4c3)C2)cc1 (centres unmarked) [CBK287802] | 103.054
O=C(CCc1ccccc1)N1CCC(c2cccc(Cc3cccc(F)c3)n2)CC1 [CBK286219] | 103.966
CCn1cc(S(=O)(=O)NCc2ccccc2OC)cn1 [CBK270304] | 68.9043
Cc1cc(C)nc(SCCN2CCOCC2)n1 [CBK261769C] | 88.8652
FC(F)(F)c1ccnc(OCCOc2ccc(Cl)cc2)n1 [CBK115838] | 105.99
Cc1ccncc1C(=O)Nc1c(C)noc1C [CBK200393] | 96.9877
CC(C)c1ccc(-c2cncc(NCc3cccc(Cl)c3)n2)cc1 [CBK065347] | 99.2549
Cc1ccc2nc(C(=O)NCCSc3nccn3C)cn2c1 [CBK281397] | 101.898
CCn1c(SCC(=O)N2CCN(c3ccccc3)CC2)nnc1-c1ccc(N)cc1 [CBK265786] | 72.3016
CC(C)(C)OC(=O)NCCNCc1cc(F)cc(F)c1 [CBK056698] | 94.9236

SMILES | % of control remaining
COc1cc(OC)cc(-c2c(C)ncnc2OC)c1 [CBK306765] | 57.2224
O=C(CN1CCC(c2ccc(F)cc2)CC1)N1CCCC1 [CBK283502] | 80.1604
Cn1ncc2c1CCCN(C(=O)COc1ccc(F)cc1F)C2 [CBK285229] | 81.4635
CNS(=O)(=O)c1ccc(C(C)NC(=O)N2CCN3CCC2CC3)cc1 (centres unmarked) [CBK304765] | 36.2835
COc1cccc(C(=O)N2CCC[C@@H](N)[C@@H]2c2ccccc2F)c1 [CBK283457] | 109.153
CC1(C)CC(=O)C=C(C(=O)NCc2ccc(OC3CCNCC3)cc2)O1 [CBK038948T] | 91.2543
Cc1cc(C)c2c(n1)nn1c(C)c(CCC(=O)O)c(C)nc21 [CBK265892] | 97.1209
Cc1nc(-c2cc3c(s2)CCN(CC(O)Cn2cccn2)C3)cs1 (centres unmarked) [CBK304458] | 92.6823
O=C1COc2ccccc2C/C=C/CC2(CCN(Cc3cncnc3)CC2)CN1 [CBK292130] | 56.0726
O=C(NC1CC2(CCCCC2)Oc2ccccc21)C1CCOC1 (centres unmarked) [CBK283760] | 104.296
COC(=O)[C@@H]1Cc2ncn(Cc3ccc(Cl)cc3)c2CN1C(=O)c1ccc(OC)cc1 [CBK288983] | 109.018
O=C(CC1CC1)NCc1ccc(-c2csnn2)cc1 [CBK149287] | 101.096
CCOC(=O)c1nc2c(n1C)[C@H]1[C@H](O)[C@H](O)C[C@H]1C1(CCC1)N2 [CBK303241] | 79.6242
O=C(O)c1ccc(NC(=O)c2cn(-c3ccccc3)nc2-c2cc3ccccc3o2)cc1 [CBK266587C] | 108.644
Cc1sc2nc(SCc3nc(-c4ccccc4)no3)n(-c3ccccc3)c(=O)c2c1C [CBK266492] | 99.9968
O=S(=O)(c1ccc(Cl)s1)N1CCN(Cc2ccc3c(c2)OCO3)CC1 [CBK270324] | 102.379
C[C@@H]1CN[C@@H](C)CN1Cc1cc(NS(=O)(=O)c2ccccc2Cl)cc2ccoc12 [CBK107211T] | 100.455
Cc1nncn1-c1ccc(Cl)cc1C(=O)c1ccccc1Cl [CBK012372] | 87.9392
Cc1ccc(CNC(=O)C2(c3ccccc3)CCCC2)cc1F [CBK161529] | 110.378
OCC(CO)(CO)NCc1ccc(-c2ccccc2)cc1 [CBK268742C] | 123.54
C/C(=N\NC(=O)C(C)Sc1ncccn1)C(C)(C)C (centres unmarked) [CBK020243] | 106.891
O=C(Cc1ccn[nH]1)N1CC(O)CC1c1cc(F)ccc1F (centres unmarked) [CBK304872] | 51.1172
COc1ccc(CCNc2ncnc3c2cnn3-c2ccc(C)cc2C)cc1OC [CBK294448] | 90.1571
COc1cc2cc3c(N)c(C(=O)NCc4cccs4)sc3nc2cc1OC [CBK120215] | 111.017
COC(=O)CCn1c(=O)c2c(nc3oc(C(C)(C)C)cn32)n(C)c1=O [CBK306034] | 46.3322
Cc1ccc(-c2cc(C(=O)O)c3cc4c(C(=O)O)cc(-c5ccc(C)o5)nc4cc3n2)o1 [CBK264342] | 64.2858
